Test results as given in patent publication US20180318392A1 (Regeneron, published 2018).

Target: T1, Tie2 on cells (human, UniProt Q02763 23-1124)
T1 construct: whole, on cells
Test: expression cloning, staining of library-transfected COS cells with 1 µg/ml Ang1-FD-Fc
Source text: cDNA expression libraries were constructed in the expression vector pJFE with mRNA isolated from human umbilical vein endothelial cells (HUVECs) and from the endothelial-like cell line EA.hy926, using a kit (Invitrogen). The libraries were transfected into dishes of COS cells and screened as in Davis, S., et al., (1994; Science. 266:816-819) with the chimeric molecule Ang1-FD-Fc, consisting of the Tie2-binding fibrinogen-like domain (FD) of Ang1 fused to a human Fc tag (Davis, 2003, supra, SEQ ID NO:5), at a concentration of 1 μg/ml. Stained cells were rescued, and plasmid DNA extracted from them was progressively enriched until isolated clones were obtained. Out of eight independent clones, one of the associated cDNAs coded for Tie2, and the other seven clones, differing only in the length of untranslated regions, contained cDNAs encoding thrombomodulin TM, a cell surface protein highly expressed in endothelial cells (Esmon, 1981, supra).

T1 sequence (Q02763 23-1124): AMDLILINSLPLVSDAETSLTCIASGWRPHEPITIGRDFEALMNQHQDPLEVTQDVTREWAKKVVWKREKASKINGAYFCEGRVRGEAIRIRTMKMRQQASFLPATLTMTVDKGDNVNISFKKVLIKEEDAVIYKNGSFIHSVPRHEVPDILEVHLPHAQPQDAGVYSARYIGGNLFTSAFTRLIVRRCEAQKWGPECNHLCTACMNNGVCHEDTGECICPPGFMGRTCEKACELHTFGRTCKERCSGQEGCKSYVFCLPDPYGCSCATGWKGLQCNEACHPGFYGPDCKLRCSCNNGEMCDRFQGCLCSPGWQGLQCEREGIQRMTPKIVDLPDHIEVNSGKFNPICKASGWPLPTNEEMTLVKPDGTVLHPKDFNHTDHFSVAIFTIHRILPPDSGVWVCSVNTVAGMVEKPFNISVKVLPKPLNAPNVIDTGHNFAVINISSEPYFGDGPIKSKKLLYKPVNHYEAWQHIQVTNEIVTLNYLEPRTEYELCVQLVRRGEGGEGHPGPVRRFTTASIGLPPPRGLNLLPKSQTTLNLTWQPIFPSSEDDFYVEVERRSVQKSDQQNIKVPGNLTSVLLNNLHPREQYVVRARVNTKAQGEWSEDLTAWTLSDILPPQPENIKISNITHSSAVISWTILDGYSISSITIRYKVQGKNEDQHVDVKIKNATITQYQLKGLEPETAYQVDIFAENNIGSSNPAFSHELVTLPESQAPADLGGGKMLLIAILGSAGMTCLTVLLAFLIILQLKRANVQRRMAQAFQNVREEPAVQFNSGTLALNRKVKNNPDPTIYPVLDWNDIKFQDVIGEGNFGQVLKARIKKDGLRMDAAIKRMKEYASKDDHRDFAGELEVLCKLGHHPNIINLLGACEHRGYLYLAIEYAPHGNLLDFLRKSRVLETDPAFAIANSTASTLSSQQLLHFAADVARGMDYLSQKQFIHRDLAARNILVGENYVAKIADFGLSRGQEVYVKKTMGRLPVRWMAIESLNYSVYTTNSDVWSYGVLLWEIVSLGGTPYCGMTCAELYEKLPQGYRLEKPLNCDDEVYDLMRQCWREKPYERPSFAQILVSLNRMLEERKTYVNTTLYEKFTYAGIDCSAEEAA

B1: Ang1-FD-Fc (Fc fusion)
chain: RDCADVYQAGFNKSGIYTIYINNMPEPKKVFCNMDVNGGGWTVIQHREDGSLDFQRGWKEYKMGFGNPSGEYWLGNEFIFAITSQRQYMLRIELMDWEGNRAYSQYDRFHIGNEKQNYRLYLKGHTGTAGKQSSLILHGADFSTKDADNDNCMCKCALMLTGGWWFDACGPSNLNGMFYTAGQNHGKLNGIKWHYFKGPSYSLRSTTMMIRPLDFGPG[human IgG1 Fc not listed]
notes: Signal peptide (residues 1-15) removed
**Q.** Does B1 bind?
**A.** Result: binds
